# Results published in the RNAGym collection of RNA variant scans (doi:10.7554/elife.90254).
# The source gives no read counts; variants with many changes may rest on few reads.
# B1: LINE1-full (parent)
# chain: UACGUAGGUGGUUUUCCCCUGAUAGUGCUAAGGGGGCCUGGAAGUUUGGACUGGGCAGAGCUCAACACAGCGUGGCAAAGUGGCUGUGGCUAGACUGCCUCUCUGGAUUCCUCGUCACUCAGCAGGGCAUCUCUGAGAGAAAUGCC
# Variants of: B1
# Experiment: self-cleavage, relative activity (ratio to wild type); higher = more cleavage; in vitro, sequencing; the parent is a self-cleaving ribozyme
row,Variant,self-cleavage
1,A77G C84U U108C U134C U143C,0.41
2,A65U C71G A117G U130C A141U,0.2
3,U9A U62C A78G U85C A107G,0
4,A50U G74U U85C U132A,0.17
5,U13C C63U U109C,0.29
6,G41U U47C A94G,0.21
7,C90G U112C G127A,0.02
8,A67U A121G A141U,0.28
9,U14C U96C A142G,0.15
10,A24G A65G U104C,0
11,A6G G36C U62C U81A,0.09
12,U39A A57G U85C C90U,0.05
13,U45A U87A C101A,0.12
14,G36A U52A A57G A94U,0.05
15,U14C U62C U87A A140G,0.05
16,A31G A43G U47C U73A A79G,1.15
17,U9C U52C A140G,0.88
18,A50G C68U A69U,0.04
19,U1A C19U U45C A50G,0
20,U29A U47A A92G,0.18
21,A42G U73C C118A A138G,2.21
22,U15G A78G U85A,0.27
23,U46C U91A A107G U143C,0.92
24,U26C C51U U52C,1.87

row,Variant,self-cleavage
1,A64G A69G C113U,0.21
2,U39G C66U U73C,0.08
3,U20C U130C U143G,2.41
4,C63U U85C A129U A142G,0.06
5,U12G G36A A140C,1.11
6,U9C U26C A78U U81G U96A U143C,0.28
7,A42G G54U G55A U62C C95U A129G,0.02
8,C18U U104A A141U,1.13
9,U15C U102A U134C,0.66
10,U62C A78G U81C A142G,0
11,A65U U85C A121G,0
12,U9G U12C A140G,1.03
13,U13C C18U A65G,0.3
14,U14C U15A U39A G72A,1.18
15,G27A A31G U119C,1.58
16,A79G U96C U109C,0
17,A6G U20C A57G G97U,0.42
18,U1C U13C A136U,0.9
19,U12C A64G A77G G82A U85C A92U C146U,0.46
20,G35A A79G U87A,0.05
21,U39C A79G U143G,1.96
22,A77G A94G U119A,0.26
23,U13C U45A G55A,0.22
24,U14C C19A A22G U52C C63G U130C,0.53

row,Variant,self-cleavage
1,A79G U85C C113A,0.12
2,U14C C38U U119C U143A,1.6
3,U9C G48A A67G,0.55
4,U23C G35U A79G U109C A140G,0.73
5,G25A A50G U100C,1.74
6,G32C G89A U108C U112A,0.04
7,A67G U81A U96A U112C,0.03
8,U52A A141G U143A,1.63
9,U45G U62C A77U,0.02
10,C16U U29C A43G C63U A64G A79G,0.12
11,A30U C71U A94G U108A A141G,0.2
12,U29A A30G U39C U52A U102C,0.35
13,U5C U13C G40A,0.93
14,U12C A78G U81C C111G,0
15,A65U U91C A117G U130A U134G A141G,0.44
16,G55U A136G A141G,0.41
17,G34U A94C U108C U130C,0.12
18,U9A A22U G122A A124G,1.12
19,C18U U39A A78U,1.87
20,C16U G35C U52A U100A C131U A138G,1.02
21,A31U G35U U39C A50G A141G,0.15
22,G33A G89A A141G,0.06
23,U14A A121G G125U A142G,1.35
24,U29C G36C U87C,1.04

row,Variant,self-cleavage
1,A57G A77G A129G,0.96
2,C63U A79G U143A,0.26
3,U5C A24G C37U,1.17
4,U87C U132C A136C,0.21
5,U23C G33U A94G A141G,0.66
6,A22U G48U A57G C63A,0.1
7,A24U A30G C111U,1.13
8,U46A U96A A141G,0.09
9,G11A A22G U23C C110A,0.47
10,G75A A78U U87C U115C U130C,0.68
11,U15C U96C A140G A142G,0.13
12,U12C A57U C71G U91C U115C,0.11
13,C19U U47A A94G C98A U109C,0.02
14,A65G G83U A124G C128U,0.05
15,U9C U47C U62C A67U,0.13
16,U20C C61U G88U U130A,0.05
17,U87C U104A A124G,0.09
18,U15C A30G G49U A57G G80A U143C,0.96
19,A42G U91C U119C,1.5
20,U46C U73A G114A A124G,1.59
21,C17U A64G U73C,0.3
22,G4U U5C A6U,1.17
23,U9C U52C A64U A69U U109C A117G,0
24,U1G U87C G97A,0.07

row,Variant,self-cleavage
1,U5C C37U C98G,0.12
2,U12C U39C U104C,1.69
3,A59G C99A U132C,0.03
4,U39C A121U U143C,1.09
5,U5C U73A A77G,0.26
6,G21A G48A A117G A141G,1.06
7,A117U A129G A141G,1.02
8,G33U A77U U134C,0.99
9,U15A U23C U26A U100C,1.56
10,A43G A69G U73C,0
11,A6G U52A A136U,1.55
12,U15A A30G A140G,1.1
13,C28U A59U A78G A92U,0
14,U45C A78G A92U U132C,1.08
15,U23C G114A U134C,1.09
16,U13G A42G U85C U104A,0
17,G8A U12G A129G U130C A136G,0
18,U12C G34A A42C A43G U46C U52A,0.4
19,U39C A50G C113U,1.08
20,U9A U13C G21A U73C,0
21,U12C U15A U143C,1.44
22,U14C U39A A117U,0.97
23,A2G C76U U109C A121U,1.17
24,U62C U73C A136G,0

row,Variant,self-cleavage
1,U9A G74A U81A A136G,1.11
2,G8A A42G A67U,0.18
3,A43G U112C A136G,0.63
4,A2C U52A A92G A129G A140C,0
5,U14C A43G U130C,1.04
6,C68U A129G A138G A141G,0.6
7,U26C A43G A64G,0.61
8,U9C A42G U96C,0.16
9,U12C A22G A31U U104C A138U A141G,0
10,U62C U81C U109A,0.02
11,U12C U87C U109C,0.66
12,U12C A124U U132C,2.33
13,A43U A77G U130C A138G,1.62
14,U1C A22G C98G U102C U115C A117G A141G,0
15,U1C G72A U73C U87G A107G,0.05
16,U9C C28A A136U,1.03
17,G7A A69G U104C A117G,0
18,A92U G114A A124U,0.43
19,A2U U47A U119A,0.39
20,U5C U62C U115C,0.55
21,A30G U45C U47C U100A A138G,0.84
22,U13C C18U U85C A94G,0
23,U45C C99U U119A A136G,0.24
24,A57G A65G U112C A138C,0

row,Variant,self-cleavage
1,U13C A31U U39C U100C A107U U143C,0
2,U91A U102A U112A A124G,0.55
3,A2G A77U U100C G122C A129G G135A,1.57
4,U9A U52C A59G A78C,0
5,U15C U23C A57G,1.63
6,G86A C113U A124G,0.08
7,G70U A107C A124U A142G,0.06
8,A78G U81C A124U,0.28
9,A50C U81C A138G,1.53
10,G7U A69G A107G,0.84
11,U9C U115C U119A,1.48
12,A2G U39A A59U C98A,0.23
13,C3U U39C G74C,0.67
14,A6U G60A U96A,0.02
15,A78U U100C A140G,2.7
16,A6G A69C U112C,1.05
17,U46A G72A U73A G139A,1.99
18,U29G U73G C116U,0.84
19,U12C G53A U109C A124G,1.19
20,U23C U102A G139U,1.6
21,C3A U39C A65G A140G,0
22,G34A U73G A92G A129G,0.08
23,A67U U73A A94G A107G,0.25
